Results reported in the supplement of paper PMC4967469.

Experiments:
Test in all cases: Viability of human cancer cell lines after 72 h of drug (GDSC screen)
Shikonin = compound: CC(C)=CC[C@@H](O)C1=CC(=O)c2c(O)ccc(O)c2C1=O [Shikonin]; details: top dose 16 µM; top dose inferred
Procedure: (§1)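 Human cancer cell lines in 384-well plates, medium with 10% serum, drug for 72 h over a 256-fold dose range (nine 2-fold or five 4-fold steps up to the top dose). Adherent lines were fixed and stained with the nucleic acid dye Syto60, suspension lines read with resazurin; signal relative to control wells, capped at 0 and 100%. One two-parameter sigmoid per drug and line, fitted in a mixed model over all curves with the slope shared within a line.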

BMS-536924 = compound: Cc1cc(N2CCOCC2)cc2[nH]c(-c3c(NC[C@@H](O)c4cccc(Cl)c4)cc[nH]c3=O)nc12 [BMS-536924]; details: top dose 4 µM; screen: GDSC drug entry 1091; top dose inferred
Procedure: as §1

BIRB 0796 = compound: Cc1ccc(-n2nc(C(C)(C)C)cc2NC(=O)Nc2ccc(OCCN3CCOCC3)c3ccccc23)cc1 [BIRB 0796]; details: top dose 10 µM; top dose inferred
Procedure: as §1

SB-525334 = compound: Cc1cccc(-c2[nH]c(C(C)(C)C)nc2-c2ccc3nccnc3c2)n1 [SB-525334]; details: top dose 20 µM; top dose inferred
Procedure: as §1

VX-702 = compound: NC(=O)c1ccc(N(C(N)=O)c2c(F)cccc2F)nc1-c1ccc(F)cc1F [VX-702]; details: top dose 2 µM; top dose inferred
Procedure: as §1

Olaparib = compound: O=C(c1cc(Cc2n[nH]c(=O)c3ccccc23)ccc1F)N1CCN(C(=O)C2CC2)CC1 [Olaparib]
Procedure: as §1

Wee1 inhibitor 681640 = compound: O=C1NC(=O)c2c1c(-c1ccccc1Cl)cc1[nH]c3ccc(O)cc3c21 [Wee1 inhibitor 681640]; details: top dose 2 µM; top dose inferred
Procedure: as §1

[1] = top dose 5 µM, screen: GDSC drug entry 1017, top dose inferred
[2] = top dose 10 µM, screen: GDSC drug entry 1495

Row | Cell Line | AUC (Shikonin) | IC50 (Shikonin) [µM] | AUC (BMS-536924) | IC50 (BMS-536924) [µM] | AUC (BIRB 0796) | IC50 (BIRB 0796) [µM] | AUC (SB-525334) | IC50 (SB-525334) [µM] | AUC (VX-702) | IC50 (VX-702) [µM] | AUC (Olaparib; [1]) | IC50 (Olaparib; [1]) [µM] | AUC (Olaparib; [2]) | IC50 (Olaparib; [2]) [µM] | AUC (Wee1 inhibitor 681640) | IC50 (Wee1 inhibitor 681640) [µM]
1 | 5637 (bladder, adherent) | 0.869 | 12.5 | 0.977 | > 4 | 0.988 | > 10 | 0.898 | > 20 | 0.989 | > 2 | 0.916 | > 5 | 0.952 | > 10 | 0.923 | > 2
2 | 23132-87 (stomach, adherent) | 0.541 | 1.3 | 0.898 | > 4 | 0.97 | > 10 | 0.945 | > 20 | 0.986 | > 2 | 0.985 | > 5 | 0.921 | > 10 | 0.968 | > 2
3 | A431 (skin, adherent) | 0.203 | 0.139 | 0.953 | > 4 | 0.98 | > 10 | 0.957 | > 20 | 0.982 | > 2 | 0.988 | > 5 | 0.901 | > 10 | 0.919 | > 2
4 | BFTC-905 (bladder, adherent) | 0.325 | 0.353 | 0.847 | 2.36 | 0.834 | 5.28 | 0.979 | > 20 | 0.988 | > 2 | 0.989 | > 5 | 0.948 | > 10 | 0.873 | 1.47
5 | BICR78 (head and neck, adherent) | 0.482 | 0.887 | 0.859 | > 4 | 0.869 | > 10 | 0.98 | > 20 | 0.981 | > 2 | 0.939 | > 5 | 0.963 | > 10 | 0.772 | 0.895
6 | BxPC-3 (pancreas, adherent) | 0.366 | 0.406 | 0.92 | > 4 | 0.946 | > 10 | 0.983 | > 20 | 0.982 | > 2 | 0.983 | > 5 | 0.971 | > 10 | 0.95 | > 2
7 | C-33-A (cervix, adherent) | 0.431 | 0.648 | 0.867 | 3.62 | 0.966 | > 10 | 0.781 | 8.35 | 0.986 | > 2 | 0.945 | > 5 | 0.848 | 7.46 | 0.974 | > 2
8 | CAL-29 (bladder, adherent) | 0.612 | 2.09 | 0.889 | > 4 | 0.954 | > 10 | 0.983 | > 20 | 0.977 | > 2 | 0.959 | > 5 | 0.912 | > 10 | 0.771 | 0.827
9 | CAL-39 (cervix, adherent) | 0.541 | 1.3 | 0.919 | > 4 | 0.985 | > 10 | 0.902 | > 20 | 0.986 | > 2 | 0.986 | > 5 | 0.984 | > 10 | 0.91 | > 2
10 | CAL-51 (breast, adherent) | 0.126 | 0.083 | 0.92 | > 4 | 0.991 | > 10 | 0.988 | > 20 | 0.987 | > 2 | 0.955 | > 5 | 0.792 | 3.87 | 0.951 | > 2
11 | CAL-72 (osteosarcoma, adherent) | 0.514 | 1.1 | 0.933 | > 4 | 0.978 | > 10 | 0.984 | > 20 | 0.982 | > 2 | 0.97 | > 5 | 0.977 | > 10 | 0.769 | 0.887
12 | CAL-85-1 (breast, adherent) | 0.229 | 0.126 | 0.9 | > 4 | 0.967 | > 10 | 0.941 | > 20 | 0.964 | > 2 | 0.978 | > 5 | 0.909 | > 10 | 0.967 | > 2
13 | CAL-120 (breast, adherent) | 0.575 | 1.7 | 0.837 | 3.85 | 0.968 | > 10 | 0.941 | > 20 | 0.98 | > 2 | 0.977 | > 5 | 0.827 | 8.61 | 0.904 | > 2
14 | CCF-STTG1 (glioma, adherent) | 0.47 | 0.827 | 0.905 | > 4 | 0.98 | > 10 | 0.91 | > 20 | 0.988 | > 2 | 0.988 | > 5 | 0.987 | > 10 | 0.988 | > 2
15 | CFPAC-1 (pancreas, adherent) | 0.452 | 0.727 | 0.863 | > 4 | 0.949 | > 10 | 0.984 | > 20 | 0.974 | > 2 | 0.96 | > 5 | 0.939 | > 10 | 0.945 | > 2
16 | CHL-1 (melanoma, adherent) | 0.234 | 0.179 | 0.899 | > 4 | 0.982 | > 10 | 0.673 | 3.67 | 0.961 | > 2 | 0.975 | > 5 | 0.92 | > 10 | 0.806 | 0.948
17 | COLO-678 (large intestine, semi-adherent) | 0.594 | 1.95 | 0.92 | > 4 | 0.984 | > 10 | 0.979 | > 20 | 0.982 | > 2 | 0.977 | > 5 | 0.966 | > 10 | 0.962 | > 2

The IC50 comes from the fitted curve, where viability falls to half of the control; fits outside the tested doses are given as limits. AUC sums up the same curve from the lowest dose to the 256-fold higher top dose; it is 1 without any effect and falls as sensitivity rises. The top dose, if marked as inferred, was calculated from the reported fits. For some assays here: Drugs with an entry number were screened twice under separate entries, and the two screens often disagree.
